Laboratory results published in PubChem BioAssay AID894 (National Center for Advancing Translational Sciences (NCATS), 2007).
The campaign covered roughly 150,000 compounds. About 6,500 (4.3%) were called active. The shares of active, inactive and inconclusive entries below differ from those in the screen. Calls come from the whole dose curve; as a rule, active = well fitted inhibition curve with a large enough effect (not every such curve was filed as active); inconclusive = small, poorly fitted or top-dose-only effect, or another doubt; inactive = no such curve, though single readings can be large or run the other way. Potencies of inconclusive entries are left out as doubtful fits.

target: 15-hydroxyprostaglandin dehydrogenase [NAD(+)] (Homo sapiens) (UniProt P15428); experiment: qHTS Assay for Inhibitors of HPGD (15-Hydroxyprostaglandin Dehydrogenase); settings: purified HPGD, NADH fluorescence kinetic, PGE2 substrate; activity change, negative = inhibition: hits give low values
UniProt P15428, sequence (P15428 whole entry, looked up): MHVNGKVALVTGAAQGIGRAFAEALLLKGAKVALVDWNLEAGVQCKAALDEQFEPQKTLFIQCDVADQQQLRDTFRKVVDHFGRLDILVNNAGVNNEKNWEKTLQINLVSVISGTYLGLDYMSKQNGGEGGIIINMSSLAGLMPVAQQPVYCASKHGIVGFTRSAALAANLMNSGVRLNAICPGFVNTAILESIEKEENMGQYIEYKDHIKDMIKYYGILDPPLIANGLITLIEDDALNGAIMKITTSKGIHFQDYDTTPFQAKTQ
How it was run: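 20 nM HPGD preincubated 15 min at room temperature with compound in 50 mM Tris-HCl pH 8, 0.01% Tween 20. Started with 1 mM NAD+ and 30 uM prostaglandin E2; NADH fluorescence (360/450 nm) read 5 times over 30-s intervals, last minus first.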
% is set by controls: 0 for no effect and ±100 for the full control effect; potency is the fitted concentration of half-maximal effect; tags give direction and shape of the fitted curve.

Row | Structure (SMILES) | Potency | activity change, negative = inhibition
1 | O=C(Nc1ccc(-c2nc3ccccc3o2)cc1)c1ccc(N2C(=O)C3C4C=CC(C4)C3C2=O)cc1 (centres undefined) | inconclusive [inhibitor, partial curve] | –
2 | O=C(NNC(=S)Nc1ccccc1)c1cccc(Br)c1 | – | inactive: -6.66%
3 | Cc1nc(-c2ccc(NC(=O)c3cccs3)cc2)cs1 | inconclusive [inhibitor, partial curve] | –
4 | Cc1cc2cc(CNC(=O)c3cccs3)ccc2[nH]1 | active: 7.08 µM | –
5 | O=C(Nc1cccn(Cc2ccccc2)c1=O)NC1CCCCC1 | inconclusive [inhibitor, partial curve] | –
6 | CCCC1=NN2C(=N)/C(=C\c3cc(C)n(-c4cccc(C)c4)c3C)C(=O)N=C2S1 | inconclusive [inhibitor, partial curve] | –
7 | Cn1c(=O)c(=O)n(C)c2cc(S(=O)(=O)N3CCOCC3)ccc21 | inconclusive [inhibitor, partial curve] | –
8 | CCC(C)C(=O)Nc1nc(C)c(-c2csc(Nc3ccc(Cl)cc3)n2)s1 (centres undefined) | inconclusive [inhibitor, partial curve] | –
9 | CN1CCN(C(=O)CSc2nc(-c3cccs3)ccc2C#N)CC1 | inconclusive [inhibitor, partial curve] | –
10 | Cc1coc2c1c(C)cc1oc(=O)c(Cc3ccccc3)c(C)c12 | inconclusive [inhibitor, partial curve] | –
11 | Cc1ccccc1Nc1n[nH]c(C)c1[N+](=O)[O-] | inconclusive [inhibitor, partial curve, poor fit] | –
12 | CC(C)OCCCNCC(O)c1ccccc1 (centres undefined) | – | inactive: 2.07%
13 | COCCn1c(-c2ccc(OC(F)(F)C(F)C(F)(F)F)cc2)nc2c1c(=O)[nH]c(=O)n2CC(C)C (centres undefined) | inconclusive [inhibitor, single point] | –
14 | COc1ccc(CCNc2c([N+](=O)[O-])c(=O)oc3ccccc23)cc1OC | active: 15.8 µM | –
15 | COC(=O)Cn1c(=NC(=O)c2cc(OC)cc(OC)c2)sc2cc(OC)ccc21 | inconclusive [inhibitor, partial curve] | –
16 | COc1ccc(OC)c(C2=NNC(=NCc3ccc4c(c3)OCO4)SC2)c1 | inconclusive [inhibitor, partial curve] | –
17 | Cc1ccccc1-c1cc(-c2ccccc2O)n[nH]1 | inconclusive [inhibitor, partial curve] | –
18 | Cc1ccc(-n2ncc3c(N4CCN(c5ccccc5)CC4)ncnc32)c(C)c1 | inconclusive [inhibitor, single point] | –
19 | Cc1cc(=O)[nH]c(SCCOc2ccc(OC(C)C)cc2)n1 | active: 17.8 µM | –
20 | CCOC(=O)c1[nH]c2ccc(OCC)cc2c1NC(=O)CN1CCN(c2ccccc2)CC1 | inconclusive [inhibitor, partial curve] | –
21 | CCN(c1ccccc1)S(=O)(=O)c1cc(C(=O)Oc2ccc3c(C)cc(=O)oc3c2)ccc1C | inconclusive [inhibitor, partial curve] | –
22 | CCc1cccc2c(=O)c(C(=O)NCCN3CCOCC3)c[nH]c12 | inconclusive [inhibitor, partial curve] | –

Row | Structure (SMILES) | Potency | activity change, negative = inhibition
23 | O=C(COc1ccccc1)Nc1cccc(-c2nnc(-c3ccccc3)o2)c1 | active: 4.47 µM | –
24 | CCOC(=O)c1cnn(-c2nc3c(C)cccc3s2)c1C(F)(F)F | inconclusive [inhibitor, partial curve] | –
25 | CCN(CC)S(=O)(=O)c1ccc(N=Cc2c(C)c(C#N)c(=O)n(C)c2O)cc1 | – | inactive: -20.9%
26 | CCOC(=O)c1csc(NC(=O)c2cc(OC)c(OC)c(OC)c2)n1 | inconclusive [inhibitor, partial curve] | –
27 | COc1cccc(C(=O)NCCC2=CCCCC2)c1 | active: 14.1 µM | –
28 | O=C(c1cc(-c2ccc(Cl)cc2Cl)on1)N1CCN(C(=O)c2ccco2)CC1 | active: 10 µM | –
29 | Cc1ccc2[nH]c(=S)cc(C)c2c1 | active: 7.08 µM | –
30 | Cn1c(=O)c(Oc2ccc(Cl)cc2)c(O)c2ccccc21 | inconclusive [inhibitor, partial curve] | –
31 | CCN(CC)c1ccc(-c2c(C#N)c(N)nc(OC)c2C#N)cc1 | inconclusive [inhibitor, partial curve] | –
32 | COc1ccc(C(=O)Cn2nnc(-c3ccccc3NC(=O)C3CCCCC3)n2)cc1 | – | inactive: -13.2%
33 | CCSc1cc(C)nc2c(-c3ccc(Cl)cc3)c(C)nn12 | inconclusive [inhibitor, partial curve] | –
34 | O=C(NC(=S)Nc1ccc2c(c1)OCO2)c1ccccc1 | active: 10 µM | –
35 | CCC(O)c1cc2c(cc1NC(=O)c1ccc(C)cc1)OCCO2 (centres undefined) | – | inactive: -8.62%
36 | CCn1cc(C(=O)NCc2cccc(F)c2)c(=O)c2cc(F)c(N3CCN(C(=O)c4ccco4)CC3)cc21 | inconclusive [inhibitor, partial curve] | –
37 | CCC(C)C(NC(=O)[C@@H](NC(=O)c1ccccc1F)C(C)C)C(=O)OC (some centres undefined) | – | inactive: -5.17%
38 | C=C1C(=O)C=C2CN(C(=O)c3ccccc3)[C@@](Cc3ccc(F)cc3)(C(=O)OC)[C@@H]12 | active: 15.8 µM | –
39 | CCN(CC)C(=O)CN(c1cc2c(cc1OC)oc1ccccc12)S(=O)(=O)c1ccc(C)cc1 | – | inactive: 7.12%
40 | O=C(CSc1ccc2nnc(-c3ccc(F)cc3)n2n1)NCc1ccco1 | inconclusive [inhibitor, partial curve] | –
41 | COC(=O)c1ccccc1NC(=O)c1cccc(COc2ccccc2Cl)c1 | inconclusive [inhibitor, partial curve] | –
42 | O=C(CN1CCOCC1)Nc1ncc(Cc2ccccc2Cl)s1 | – | inactive: -18.5%
43 | CCOc1ccc(C(=O)NCc2ccco2)cc1 | active: 28.2 µM | –
44 | CCCOc1ccc(CC(=O)NNC(=S)Nc2ccccc2)cc1Br | inconclusive [inhibitor, partial curve, poor fit] | –
